In PubChem BioAssay AID463173 (ICCB-Longwood Screening Facility, Harvard Medical School, 2010):
The campaign covered roughly 52,000 compounds. About 4,300 (8.3%) were called active. Cut-off read from the data, not from the text of the source: active = survival mostly below about 52% (no sharp cut-off); inactive = mostly above about 56%. This is one part of the list.

Test system: DeltatarO mutant
Experiment: growth inhibition of S. aureus wild type versus tarO mutant, primary screen, teichoic acid synthesis inhibitors, RN4220, OD600 (AID 463173)
Settings: OD600, 18 h, stronger effect = lower value, screened at 18.75 µg/mL (by protocol)

Row | SMILES | survival
1 | COC(=O)c1c(NC(=O)c2ccc(S(=O)(=O)N3CCCC(C)C3)cc2)sc2c1CCN(C(C)C)C2 (stereo unspecified) | inactive: 99%
2 | CC(C)c1ccc(NC(=O)CSc2ncc3c(n2)-c2ccccc2N(C)S3(=O)=O)cc1 | inactive: 92%
3 | Cc1ccc(Cl)c2sc(N3CCN(C(=O)C4CC4)CC3)nc12 | inactive: 87%
4 | CSc1ccc(CNCc2c(C(=O)O)c(C)n(Cc3ccc(F)cc3Cl)c2C)cc1 | inactive: 79%
5 | CC1=NN(CCC#N)C(c2ccccc2)C1 (stereo unspecified) | inactive: 107%
6 | Cc1cc(C)cc(OCC(=O)NCC(c2ccc(Cl)cc2)N2CCCCC2)c1 (stereo unspecified) | inactive: 61%
7 | CC1CCc2c(sc3nnn(Cc4ccc(F)cc4)c(=O)c23)C1 (stereo unspecified) | active: -1%
8 | COc1ccc(Cc2c(Cl)nc(SC)nc2NN)cc1 | inactive: 84%
9 | O=C(NCc1ccccc1)c1cc(-c2cccc(Cl)c2)on1 | inactive: 61%
10 | COc1ccc(S(=O)(=O)N2CCN(c3ccc(F)cc3)CC2)cc1-c1noc(C)n1 | inactive: 51%
11 | COC(=O)c1cc(NC(=O)CCc2c(C)nc3c4c(C)cc(C)nc4nn3c2C)cc(C(=O)OC)c1 | active: 56%
12 | Cc1cc(S(=O)(=O)Nc2cccc(C(=O)O)c2)c(C)c(S(=O)(=O)c2ccccc2)c1 | inactive: 76%
13 | Cc1nnc(SCCCN2C(=O)c3ccccc3C2=O)o1 | inactive: 73%
14 | S=c1[nH]nc(NNc2ccccc2)n1Nc1ccccc1 | inactive: 74%
15 | CN(C)C(=O)c1c(N)no[n+]1[O-] | active: 56%
16 | CCOC(=O)c1sc2ccccc2c1S(=O)(=O)Nc1ccc(N(C)C)cc1 | inactive: 126%
17 | CCOC(=O)c1sc(N2C(=O)c3oc4cc(C)c(C)cc4c(=O)c3C2c2cccc(O)c2)nc1C (stereo unspecified) | inactive: 78%
18 | CCc1ccccc1NC(=O)Cn1nnc(C(=O)OC)c1C(=O)OC | inactive: 93%
19 | COc1ccc(N2CCOCC2)cc1 | inactive: 89%
20 | CCN(CC)S(=O)(=O)c1ccc2c(c1)N(CC(=O)Nc1c(C)cccc1C)C(=O)CO2 | inactive: 91%
21 | COc1ccc(OC)c(N(CC(=O)NCc2ccccc2)S(=O)(=O)c2ccccc2)c1 | inactive: 71%
22 | O=C1CC2CCC(CN1)N2CC(=O)N1c2ccccc2Sc2ccc(C(F)(F)F)cc21 (stereo unspecified) | inactive: 102%
23 | CCc1ccc(NCc2cc3cc4c(cc3n(CC(=O)Nc3ccc(Cl)cc3)c2=O)OCO4)cc1 | inactive: 135%

Row | SMILES | survival
24 | COC(=O)c1ccc(NC(=O)CC2C(=O)N(c3ccc(Cl)cc3)C(=O)N2Cc2cccs2)cc1 (stereo unspecified) | inactive: 102%
25 | COc1ccc(CCNC(=O)c2nn(-c3ccc(C)cc3)c(=O)c3c2c2ccccc2n3C)cc1OC | inactive: 80%
26 | O=C(CC1N=C2c3ccccc3N=C(SCC(=O)Nc3cccc(C(F)(F)F)c3)N2C1=O)NCc1cccs1 (stereo unspecified) | inactive: 69%
27 | CCOC(=O)CCn1nc(-c2ccc(C)cc2)c2ccccc2c1=O | inactive: 67%
28 | Cc1ccc(C)c(Cn2c(=O)n(Cc3ccccc3)c(=O)c3c(C)c(C)sc32)c1 | inactive: 97%
29 | CCc1ccccc1NC(=O)Nc1nnc(N2CCCC2)s1 | inactive: 90%
30 | CCc1ccc(CN(Cc2ccco2)C(=O)c2ccccc2Cl)cc1 | active: 46%
31 | COc1ccccc1NC(=O)CCCOc1cc(=O)n(C)c2ccccc12 | inactive: 114%
32 | CCc1ccccc1NC(=O)c1cc(S(=O)(=O)N(CC)c2ccccc2)ccc1F | inactive: 101%
33 | CCOC(=O)Cn1cnc2sc(C)c(C)c2c1=O | inactive: 95%
34 | CC1CCN(c2nc3c(S(=O)(=O)c4ccccc4)nnn3c3ccsc23)CC1 | inactive: 113%
35 | COc1ccc(-c2nc(C)c(CCNC(=O)C(=O)Nc3cccc(F)c3)s2)cc1OC | inactive: 83%
36 | Cc1ccc(S(=O)(=O)c2nnn3c2nc(NCc2ccc(F)cc2)c2sccc23)cc1 | inactive: 113%
37 | CCCNC(=O)c1ccc2c(c1)N(Cc1cccc(C)c1)C(=O)c1ccccc1S2 | inactive: 101%
38 | COc1ccc(NC(=O)CCN2CCN(c3cccc(Cl)c3)CC2)cc1 | inactive: 67%
39 | O=C(CSC1=NCCS1)N1CCN(c2ccc(Cl)cc2)CC1 | inactive: 69%
40 | O=C(Cn1c(C(=O)N2CCN(C(=O)c3ccco3)CC2)cc2sccc21)c1ccccc1 | inactive: 85%
41 | Cc1ccc(C(=O)COC(=O)c2cc(-c3ccccc3)nc3ccccc23)cc1C | inactive: 125%
42 | COc1cc(NC(=O)Cn2c(=O)n(Cc3ccccc3OC)c(=O)c3cccnc32)cc(OC)c1 | inactive: 119%
43 | CCn1nc(C)c(Oc2ccccc2O)c1C | inactive: 118%
44 | Cc1ccc(C)c(N2CCN(S(=O)(=O)c3ccc4oc(=O)c5ncn(C)c5c4c3)CC2)c1 | inactive: 76%
45 | CCOC(=O)CSc1nnc(-c2ccccc2NC(=O)c2ccccc2)o1 | inactive: 125%
46 | O=C(NCCc1ccccc1)c1ccc(CSc2nc3cccnc3n2Cc2ccc(F)cc2)cc1 | inactive: 92%

Row | SMILES | survival
47 | CC(=O)c1ccc(NC(=O)C2CCC(CNS(=O)(=O)c3ccc(Br)s3)CC2)cc1 (stereo unspecified) | inactive: 69%
48 | O=C(NC(=O)c1cccc(F)c1)Nc1ccc(-c2cc(C(F)(F)F)nn2-c2ccccc2)cc1 | inactive: 157%
49 | Cc1nc(-c2ccc(C)c(N3CCN(C(=O)Nc4ccccc4C(F)(F)F)CC3)c2)no1 | inactive: 89%
50 | COc1cccc(CNC(=O)c2c(C)nn(-c3cccc(C)c3)c2-n2cccc2)c1 | inactive: 81%
51 | O=C(NCCCc1ccccc1)c1nn(-c2ccccc2F)nc1CO | inactive: 92%
52 | COC(=O)c1sc(-c2ccccc2)cc1NC(=O)c1cccc(F)c1 | inactive: 94%
53 | O=C(NCc1ccc(F)cc1)C1CCN(C(=O)c2ccc(-n3ccc4ccccc43)s2)CC1 | inactive: 83%
54 | Cc1ccc(CN2CCCn3nc(C(=O)NCCC(C)C)cc3C2=O)cc1 | inactive: 92%
55 | CCC(C)(C)n1nnnc1C(C(C)C)N(Cc1cccnc1)Cc1ccco1 (stereo unspecified) | inactive: 78%
56 | Cc1ccc(C(=O)Nc2nnc(S(=O)(=O)N3CCOCC3)s2)cc1 | inactive: 68%
57 | Cc1cc(Cl)nc2ccc(Cl)cc12 | inactive: 76%
58 | COC(=O)c1ccc(NC(=O)C2(S(=O)(=O)c3ccc(C)cc3)CC2)cc1 | inactive: 134%
59 | CCNC(=O)Cn1cc(C#N)c2ccccc21 | inactive: 88%
60 | O=C1C2C3C=CC(C3)C2C(=O)N1CCN1CCCC1 (stereo unspecified) | inactive: 109%
61 | CCc1ccc(-n2nnc(-c3nc(-c4ccccc4)no3)c2C)cc1 | inactive: 99%
62 | COc1ccc(CCNC(=O)c2ccc3c(c2)N(Cc2cccc(C)c2)C(=O)c2ccccc2S3(=O)=O)cc1OC | inactive: 77%
63 | C1=CCC(CN2CCN(CC3CC4C=CC3C4)CC2)CC1 (stereo unspecified) | inactive: 76%
64 | CCn1cc(S(=O)(=O)c2cc(C)cc(C)c2)c(=O)c2cc(F)c(N3CCOCC3)cc21 | inactive: 72%
65 | COc1ccccc1NC(=O)CSc1nnc(-c2cccc(Cl)c2)o1 | inactive: 80%
66 | CCOc1ccccc1-c1nc(-c2ccc(-c3ccccc3)nc2OCC)no1 | active: 4%
67 | COc1ccc2nc(N(Cc3cccnc3)C(=O)CCc3ccccc3)sc2c1 | inactive: 78%
68 | Cc1ccc(Nc2c3c(nc4nncn24)CCC3)cc1 | inactive: 62%
69 | COc1ccccc1Nc1c2c(nc3ccc(NC(=O)/C=C/c4cccc(OC)c4OC)cc13)CCCC2 | inactive: 74%

Row | SMILES | survival
70 | Cc1ccc(S(=O)(=O)N2CCC(Oc3ccc(-n4cnnn4)cc3)CC2)cc1 | inactive: 72%
71 | COc1ccc(CC(=O)Nc2ccc3nc(Nc4cccc(Cl)c4)cc(C)c3c2)cc1OC | active: 46%
72 | COc1cc2c(cc1OC)C1=C(C#N)CN(C3CCCCC3)CN1CC2 | inactive: 83%
73 | COc1ccc(CNCCSc2nnnn2-c2ccccc2)cc1 | inactive: 47%
74 | COc1ccccc1-n1cc(-c2ccc(C)cc2)nc1S(=O)(=O)CC(=O)Nc1ccccc1C(F)(F)F | inactive: 111%
75 | O=C(c1cccc(Cl)c1)n1nc(-c2ccco2)nc1NCc1cccs1 | inactive: 78%
76 | O=C(CNC(=O)c1ccccc1Cl)OCc1cc(=O)n2ccsc2n1 | inactive: 80%
77 | Brc1csc(CN2CCc3nc(Nc4ccccc4)ncc3C2)c1 | inactive: 83%
78 | Cc1cccc(NC(=O)c2cc(S(=O)(=O)N3CCCCC3)c[nH]2)c1C | inactive: 87%
79 | COc1cc(CN(C(=O)c2cc3ccccc3oc2=O)C2CCS(=O)(=O)C2)cc(OC)c1OC (stereo unspecified) | inactive: 52%
80 | Cc1cccc(Cn2c(SCc3ccc(C(=O)N4CCCCCC4)cc3)nc3ccncc32)c1 | inactive: 128%
81 | Cc1cc(C)cc(-n2cnc3cc(C(=O)NCCc4ccccc4)ccc32)c1 | inactive: 78%
82 | Cc1ccc(C)c(N(C)C(=O)c2cn(C)c(=O)c3ccccc23)c1 | inactive: 67%
83 | CCOC(=O)c1c(Oc2ccc(C(=O)OC)cc2)nnc(-c2ccccc2)c1-c1ccccc1 | inactive: 74%
84 | Cc1ccc(CCNC(=O)CCc2cn(Cc3ccccc3C)c3ccccc23)cc1 | inactive: 68%
85 | COc1cc(NC(=O)Cn2c(SCc3ccc(F)cc3)nc3cccnc32)cc(OC)c1 | inactive: 120%
86 | CCN(C(=O)Cn1c(C(=O)OC)cc2oc3ccccc3c21)c1cccc(C)c1 | inactive: 53%
87 | c1ccc(C(c2nnnn2C2CCCC2)N2CCN(c3ccccc3)CC2)cc1 (stereo unspecified) | inactive: 102%
88 | Cc1cc(C(F)(F)F)n2nc(-c3ccc(Br)cc3)cc2n1 | inactive: 66%
89 | CN1CCN(CC(=O)NCCc2ccc(F)cc2)CC1 | inactive: 83%
90 | CCCCOc1ccc(-c2nn(-c3ccccc3)cc2C2NC(=O)NC(C)=C2C(=O)OCC)cc1 (stereo unspecified) | inactive: 75%
91 | Cc1ccc(CNC(=O)c2ccc3c(c2)nc(C)n3-c2cccc(F)c2)cc1 | inactive: 84%
